The full ranking holds about 1,800 sequences; the median of “median log2 fold change of GCK-ALFA target abundance (FLAG IP / Myc IP barcode read proportion)” is about 0.14, and the lowest 2% start at about -0.84. Some of the results follow.
T1: TRAF2, Q12933
T1 chain: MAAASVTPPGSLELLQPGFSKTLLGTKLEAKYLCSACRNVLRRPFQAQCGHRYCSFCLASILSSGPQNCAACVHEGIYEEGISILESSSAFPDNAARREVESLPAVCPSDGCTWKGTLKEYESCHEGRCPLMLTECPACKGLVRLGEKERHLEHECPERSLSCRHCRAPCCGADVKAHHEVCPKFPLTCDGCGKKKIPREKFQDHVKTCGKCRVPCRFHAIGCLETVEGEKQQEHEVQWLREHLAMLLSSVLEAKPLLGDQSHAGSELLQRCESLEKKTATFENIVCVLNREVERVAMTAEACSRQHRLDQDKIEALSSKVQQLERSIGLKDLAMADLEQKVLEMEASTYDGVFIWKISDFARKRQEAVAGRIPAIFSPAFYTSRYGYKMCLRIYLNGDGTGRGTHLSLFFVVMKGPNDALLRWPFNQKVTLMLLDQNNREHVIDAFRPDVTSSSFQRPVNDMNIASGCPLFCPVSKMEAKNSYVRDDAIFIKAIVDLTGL

B1: traf2_out_5_63_2367 (protein)
chain: SAREKERKELTEEAREAEKVVLEALKLSEEEAKKLVEEAIEKGLNVNLIAGMFRAHARFLRLQGGPEEEIEKAERLAEYARELGRRREAEAAAAAAAAAA
B2: traf2_out_17_162_1642 (protein)
chain: SMAEEFRERLEKKLEELEKKLEELKKKSEEIDKYSKEELSDLIVEASELRREARELIVEIEKNKELLDPEEYERLKKKAEEIAEELNRIAQKFYDKYLKL
B3: traf2_out_1_71_1752 (protein)
chain: SPEAEKAEKALEDMAKSIAEGMKTEEALERYLEAFRNHIKRVKALAKANKDDEAVKAGSIADLNLEAELLEKIAKYVDEESKKKLEELAKEAKKAAEEIK
B4: traf2_out_8_144_2542 (protein)
chain: HMSKREIANRLANALVKLDELIKEADEETKEILTKARRHVGQALNLVVFGGDKEEIIEELEKAIKYLEEAIKKVKDNPELKKKVQEIKKELEEILKDVKE
B5: traf2_out_12_187_958 (protein)
chain: SNREELLRAAEAGVAQALAALERRAPEHPAFRRLLERLRELAELMRRHPEIASDALVAASAILRAIRLFEAGADPALVEAALAAAERTLEEALARARELE
B6: traf2_out_11_79_936 (protein)
chain: EEKRQELLKKLEEALKLLKELLEKMKAGTISEEERKEMLDEIERLLQRAAQLALELGLSDTLVEISEAKRHVRLAYSGDLEALEKAIKELEEAIKLVEEA
B7: traf2_out_17_35_1755 (protein)
chain: MTPIEKEREIASEIADKILEESDKLNKELDKVYEETKDKKAVVDKTKEILDKYGIGEEEKELLDEHYKTGNDEEILAFSHELIRRAVGEKYGKKYAEALK
B8: traf2_out_5_63_2348 (protein)
chain: SEHAELTALARRADRLARAILEAAEAGKEEEAEKLIEEAVEDPELARLVIGILKGEAKYYELLGDQPEKAKLAKELAKELEKRLEEREAARAAAAAAAAA
B9: traf2_out_13_95_1036 (protein)
chain: SAELAKKINEIADKMLDEALALLDAAKKAHADNPEAVAVLDEAKRAAVTQGISEAIHILEQAKAANPEHAADFAALIAELKALREKAGKEVAKLIKEEKE
B10: traf2_out_17_162_1522 (protein)
chain: SALEERLAELEKRLEELEKKLKELEKKLENLEKMSKEELTDLLVEASEAKREALELAEELRRLRPLIGEERAGELIERAEEIAEKLQKIANKIYKELEKK
B11: traf2_out_13_95_1166 (protein)
chain: EEEKTKKEREIASEAFDKREEVAEDFRDRVLALIDDPEAAELMDEVVRNMNIYTLRHAGAELQARYPEKAAEIAALTDEAEARMREIDKETTKKLNEIEK
B12: traf2_out_18_54_1950 (protein)
chain: ARLEALRAEARAVIDEWTAAVLALVADNPEIQAMVEEARARVLAALDTEGLWAAVTTFRRLSAEIIAAIEDPEVADAVGDLAADARNRLAKLALEAERAE
B13: traf2_out_17_162_1550 (protein)
chain: AELERRLEELERELEEIEREVERLESLLPKLPEMSKEELTDLLVEASEVRRRALELAEEIRELAAEIGEERARELAERARELAERLQRIANKIYEELLKK
B14: traf2_out_11_183_893 (protein)
chain: KQEKINEATNEVVDRHERMRAEALALLRSLSARYADTDPELAAFYAEAAALIEAGSNVRVVLEEVAESLPPGPDKEEVEALLRRVREEQRRMGKILEEAE
B15: traf2_out_11_169_848 (protein)
chain: EEEEKNRKIIDKALELNDKAKEELRAHALALAKKAGLDTAAVEAIFEANKGKSLSAVAAALIAWFKAQGKDAEAAAVEAKYEELKEKINKEMTKFLKELE
B16: traf2_out_13_95_1212 (protein)
chain: EEEKTRKLREVTNEIADELIDFVEATADAIEAATGRADYRDEILATLRRNGVRAAVALIRRYAEADPEHAAVYRAAAAEAEAKIREAGKRFAEAEKEIEE
B17: traf2_out_11_169_883 (protein)
chain: EEKEKNRKFNDFALELNDEAKEKLKEFALKLAKELGLNEEEVKAIFEENKNKSLSYVASKLIEYFKEKGKEEAAKKVLEKYEELKDEINKKGTEKLKELE
B18: traf2_out_15_17_1306 (protein)
chain: EAERERNRRLAEAMNAVLDEAEARLAELEAEALKLAKEKGVEERVLKLLEESRDYSVRTRVLLLARLAKEEGWEELAKRAEELAEEIGRRASEAARAVEE
B19: traf2_out_16_177_1452 (protein)
chain: ELDKVMDRLVILSNLRRAALLAVEGKGDEYQEHLKRAREEAEEAGDEEGLKLAERIEELIAKNTPEAKEELKKLAEELQKEAQKLAEEAEKLIKERAEKE

Target: T1, TRAF2, Q12933
Test: median log2 fold change of GCK-ALFA target abundance (FLAG IP / Myc IP barcode read proportion) (log2 ratio); each designed protein is fused to an ALFA-tag nanobody in HEK293 cells to bring the named protein to FLAG-tagged glucokinase (GCK); Myc marks an untargeted standard; higher = target protein stabilised (more abundant)
Conditions: target protein: 3xFLAG-MCP-GCK-ALFA reporter; HEK293 landing pad (RPLP)
Method in brief: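 An ALFA-nanobody-fused binder library was recombined into HEK293 landing-pad cells and induced with 2 μg mL^−1 doxycycline. Cells were transfected with a plasmid expressing a FLAG-tagged target and a Myc-tagged standard. After 48 h, lysates underwent anti-FLAG and anti-Myc immunoprecipitation, and circular RNA barcodes were reverse transcribed, amplified and sequenced. Target abundance is the per-binder median log2 ratio of FLAG to Myc barcode read proportions. Barcodes needed ≥10^−7 proportion in both replicates, binders ≥3 barcodes per replicate, and a 10^−6 pseudocount was added; the two replicates were pooled.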

Going from B1 to B2, the “median log2 fold change” value rises from -0.724 to 0.252.

First: B3
Second: B4
The “median log2 fold change” value of the first is lower: -0.948 for the first, -0.102 for the second.

Going from B5 to B6, the “median log2 fold change” value rises from 0.172 to 0.397.

Compared with B7, B8 is lower in “median log2 fold change” value: 0.546 for the first, -0.315 for the second.

B9 and B10 are within 0.2 log units of each other in “median log2 fold change” value: 0.0913 for the first, 0.117 for the second.

Compared with B11, B12 is lower in “median log2 fold change” value: 0.283 for the first, -0.0157 for the second.

B13 and B14 are within 0.2 log units of each other in “median log2 fold change” value: 0.259 for the first, 0.208 for the second.

Going from B15 to B16, the “median log2 fold change” value rises from -0.138 to 0.111.

First: B17
Second: B18
The “median log2 fold change” value of the first is higher: 0.285 for the first, 0.0677 for the second.

With B19 the “median log2 fold change” value was -0.448.
